“And” between values parts separate entries of the source, which are not always exact repeats. Identical values can stand only once.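 Protocol summary: plate cells (96-well), add compound at 5 concentrations, incubate 48 h, interpolate endpoints linearly. GI50 is the concentration that inhibits growth by half. Definition used: TGI = concentration required for complete inhibition of growth.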
Test system: NCI-H322M lung
Assay: NCI tumour cell line growth inhibition, 48 h

SMILES	GI50	TGI
CC[C@]12C=CCN3CC[C@]4(C(=C(C(=O)OC)C1)Nc1cc5c(cc14)[C@@H]1[C@H](O5)[C@@H](O)[C@@]4(CC)CC(C(=O)OC)=C5Nc6ccccc6[C@@]56CCN1[C@@H]46)[C@@H]32	0.755 µM and 0.933 µM	25 µM and 59.6 µM
CCOC(=O)/C(C1=NCCN1C)=C(\O)c1ccccc1	–	> 100 µM
NC1=NC(c2ccc(Cl)cc2)=CC(c2cccc(Cl)c2)S1 (stereo not given)	–	> 100 µM
COc1ccc(OC(=O)N2C/C(=C\c3ccccc3)C(=O)/C(=C/c3ccccc3)C2)cc1	–	> 100 µM
O=c1ccn(C/C=C/c2ccccc2)c(=S)n1C/C=C/c1ccccc1	–	> 100 µM
COc1cc(-c2nc(N)c(C#N)c3c2CCS(=O)(=O)c2ccc(C)cc2-3)cc(OC)c1OC	–	> 100 µM
CC(=O)Oc1ccc2c(c1)[nH]c1c3ccc(OC(C)=O)cc3oc(=O)c21	–	72 µM
CN1CCS(=O)(=O)NC(Cc2ccccc2)C(=O)N2CCCC2C1=O (stereo not given)	–	> 100 µM
CCOC(=O)c1c2ccccc2n2c(=O)n(-c3ccc(OC)cc3)nnc12	–	> 100 µM
CC1CC(C)(O)C2C3(C)CCCC2(COC3=O)C12CCC1(CCOC1=O)O2 (stereo not given)	–	> 250 µM
Cc1ccc(S(=O)(=O)c2ccc(C)cc2[N+](=O)[O-])c([N+](=O)[O-])c1	–	> 100 µM
CNC(=O)O/N=C1\N(C)CN(c2ccccc2)C12CCN(CCCC(=O)c1ccc(F)cc1)CC2	–	> 100 µM
CCC1=CC(OCc2ccccc2)C(CCN(Cc2ccccc2)C(=O)OCc2ccccc2)C1 (stereo not given)	–	47.4 µM
c1ccc2c(c1)nc1ccccn12	–	> 100 µM
CCc1ccc(Oc2c(-c3ccc(OCCc4cccc(C(F)(F)F)c4)cc3O)n[nH]c2C(F)(F)F)cc1	6.06 µM	12.3 µM
C=C(C)COc1ccc2c(c1)CCC1C2CCC2(C)C(=O)/C(=N/O)CC12 (stereo not given)	–	21 µM
CCOC(=O)c1ccc(N=C2Sc3nc4ccccc4n3C2=Nc2ccc(C(=O)OCC)cc2)cc1	–	70.6 µM
Nc1nc(N)c2cc(S(=O)(=O)c3ccc4ccccc4c3)ccc2n1	–	> 100 µM
Nc1c(C(=O)Nc2cccc(Cl)c2)sc2nc3c(cc12)C(O)CCC3 (stereo not given)	0.52 µM	65.6 µM
COc1ccc2nc3cccc([N+](=O)[O-])c3c(NCCC(=O)O)c2c1	–	> 10 µM
O=C1/C(=C/c2ccc(Cl)cc2)CN(Cc2cn(CCCNc3ccnc4cc(Cl)ccc34)nn2)C/C1=C\c1ccc(Cl)cc1	1.34 µM	2.83 µM
CC(C)(C)OC(=O)N(O)CCCn1cnc2c(NC3CC3)ncnc21	–	> 100 µM
C#CN1C(=O)c2c(c(-c3ccccc3)c(-c3ccc(Oc4ccc(-c5c(-c6ccccc6)c6c(c(-c7ccccc7)c5-c5ccccc5)C(=O)N(C#C)C6=O)cc4)cc3)c(-c3ccccc3)c2-c2ccccc2)C1=O	–	> 100 µM
COc1ccc(/C(C)=C2\CCCN(Cc3ccccc3)C2)cc1	–	> 100 µM

SMILES	GI50	TGI
CCN1CCN(Cc2ccc(Nc3ncc(F)c(-c4cc(F)c5nc(C)n(C(C)C)c5c4)n3)nc2)CC1	0.398 µM	10.6 µM
NC(N)=N/N=C/c1c(-c2ccc(Cl)c([N+](=O)[O-])c2)nc2sccn12	–	2.95 µM
OC1CC(O)O[C@H](c2ccccc2)C1 (stereo not given in full)	–	> 100 µM
COc1cc(/C=C2\CCC/C(=C\c3cc(CN4CCCC4)c(O)c(OC)c3)C2=O)cc(CN2CCCC2)c1O	4.36 µM	15.9 µM
O=C(CCN1CCCCC1)c1csc2ccccc12	–	> 100 µM
Cc1ccc(NC(=O)c2cccc(OP(=O)(Nc3ccc(C)cc3)Nc3ccc(C)cc3)c2)cc1	–	> 100 µM
CC(C)N(C(C)C)S(=O)(=O)CC12CCC(C/C1=N\O)C2 (stereo not given)	–	> 100 µM
C/C=C\C1OC1(C)c1cc(=O)c2c(C)cc3c(c2o1)C(=O)c1c(O)c(C2CC(C)(N(C)C)C(OC(C)=O)C(C)O2)cc(C2CC(N(C)C)C(O)C(C)O2)c1C3=O (stereo not given)	–	0.0912 µM
COc1cc2c(cc1NC(=O)c1ccccc1)c1c(n2S(=O)(=O)c2ccccc2)CCN(S(=O)(=O)c2ccccc2)C1	–	> 100 µM
N#Cc1c(-c2ccccc2)cn(C(=O)c2ccccc2)c1N	–	> 100 µM
COc1cc2c(Nc3ccc(-c4ccc(N)cc4)cc3)ncnc2c(OC)c1OC	12.9 µM	> 100 µM
CCCCC/C=C\C=C\CCCCCCCCC(=O)OC	–	> 100 µM
CC(=O)Oc1ccc2c(=O)c(C(C)=O)coc2c1	–	> 100 µM
COc1ccc2c(c1)OCC1c3cc(OC)c4ccccc4c3OC21 (stereo not given)	79.3 µM	> 100 µM
C[n+]1cccc(NC(=O)c2ccc3ccc4ccc(C(=O)Nc5ccc[n+](C)c5)nc4c3n2)c1	2.15 µM	> 47.4 µM
O=C1CSC(c2ccccc2)N1c1ccc(-c2ccc(-n3c(-c4ccccc4)nc4ccccc4c3=O)cc2)cc1 (stereo not given)	–	> 100 µM
CC(CC(=O)N1C2CC3CCC2(CS1(=O)=O)C3(C)C)[Si](C)(C)C (stereo not given)	–	> 100 µM
COc1cc(-c2oc3c(OC)c(O)c(OC)c(O)c3c(=O)c2OC)cc(OC)c1OC	–	> 100 µM
COC(C)=NCCC1=CCCCC1	–	> 100 µM
COc1ccc(C2=C(c3ccccc3)C(=O)N3CCCC3C2)cc1 (stereo not given)	3.29 µM	> 100 µM
OC1C2CCCCN2C[C@@H](O)[C@H]1O (stereo not given in full)	–	> 100 µM
CC(=O)OC(C(=O)[O][Ge]([CH3])([CH3])[CH3])c1ccccc1 (stereo not given)	> 100 µM	> 100 µM
O=P1(Oc2ccc(Cl)cc2Cl)Oc2cc3ccccc3cc2O1	–	> 100 µM
COc1ccc2nc3cc([N+](=O)[O-])ccc3c(NCCO)c2c1	1.86 µM	10.1 µM

Source: PubChem BioAssay (NCI)
